This is one part of the list. At the low end of the ranking, values are background and their order means little.
target: T1, GST-Rok (full length) (UniProt O34857); assay: protein binding microarray; conditions: Rok is a gene silencer of Bacillus subtilis; high values mean tight binding; most listed sequences are background and not binding sites; double strand, one strand shown;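 further: rank score from −0.5 (least bound) to 0.5 (best bound)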
T1 sequence: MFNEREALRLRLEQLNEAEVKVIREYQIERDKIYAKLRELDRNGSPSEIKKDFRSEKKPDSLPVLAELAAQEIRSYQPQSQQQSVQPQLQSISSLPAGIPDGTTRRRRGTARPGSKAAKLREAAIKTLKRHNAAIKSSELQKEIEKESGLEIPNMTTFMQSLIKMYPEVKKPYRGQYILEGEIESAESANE

Sequence	binding signal [E-score]
CAAAATCC	-0.141
AGGACAAT	0.133
ATCGGTCG	-0.141
CGCTGCCA	-0.235
ATCGCGCA	0.0968
CCATGCGC	-0.213
ATCCCTAA	-0.06
ACACGTGC	-0.0468
TAGAGCGA	-0.0799
CAAGCACA	-0.0376
CGGTTCTA	0.09
AGGGCTTG	-0.305
AATGCCAT	0.00982
TTCCCAAA	-0.0989
ATACAGTA	0.319
CAGAAAGC	-0.127
GGACGTGA	-0.14
TGAATACA	0.0213
CGCAGGCA	-0.24
AAATGATC	0.143
CATGGACC	-0.282
ATCATAGA	0.174

Sequence	binding signal [E-score]
AACGCGGC	-0.249
AATTAAGG	0.158
AGTTCATC	0.119
CGCCGACC	-0.441
AAGTAAGA	0.0339
ACCTTCTG	-0.0843
GCACCCCC	-0.427
GGAACTAA	0.246
CCCGCGTA	-0.0236
GAACCGTC	-0.0491
GGTGCCCA	-0.251
ATGCCTCA	-0.0433
CTACCTGA	0.178
GCTGACGA	-0.167
GGATCTGA	-0.101
GATAGCAA	0.189
ACCGTCTC	-0.0829
GTGTGAGA	-0.0423
GGAGCTAA	0.0195
AATCAATT	0.145
AGGTGTGC	-0.104
GAGCGTGA	-0.162

Sequence	binding signal [E-score]
CATCCTTC	-0.203
GGGTTCCA	-0.294
AAACAACC	-0.173
ATGCTGCC	-0.0694
GGTTCACA	-0.117
AACCTTTG	-0.0196
CATGTTGG	-0.0439
GTCAAGCA	0.0932
CCTTCTCC	-0.334
CAGCATGA	0.0825
GCCCTCAC	-0.352
GCCGATTA	-0.165
CCCGCCTA	-0.261
CGATGGCG	-0.281
CACAGTGC	0.0156
CTTCCGGC	-0.387
GCATTGTA	0.152
AGCGCAAT	0.0762
CCGCCTTA	-0.153
CACAAAGG	-0.246
AGCCCTCA	-0.175
TGCTCGAA	-0.0417

Sequence	binding signal [E-score]
GCGCCTGA	-0.392
CGATATGC	0.0317
CAATTCTG	-0.0253
GCGGAAAA	0.129
ACTCTTTA	0.143
ACGCGTTC	0.00292
ACTTGTTC	0.145
CGCGGCAC	-0.266
CCGTGCTC	-0.174
CGTTCTTA	0.0939
AACGCCTC	-0.187
ACAAAGGT	0.032
ACGGCGAT	-0.151
ATCTTTCG	0.109
ACTCTCAG	0.00612
GGTACGAA	0.0735
GACAAGTA	0.0991
ACGGCAGT	-0.2
GCAAATCA	0.0652
ACCACCAG	-0.145
AGGCAAAA	0.0293
CCACTGTC	-0.188

Sequence	binding signal [E-score]
CCAGGCTC	-0.295
ACCCTGCT	-0.204
CAGGCGAG	-0.272
ACGGGGCG	-0.468
GATCGGGC	0.00756
ATTGTGAG	0.0581
CAATAATG	0.0655
TCATATAA	0.192
ATATCTAA	0.371
CGAATTCG	0.207
CCGGGCCG	-0.335
ATTAAGCG	0.214
CGAAGGAG	-0.162
AAGTAACG	0.116
ACTCGGAG	-0.246
TGCGGCAA	0.043
ACGCCCTA	-0.251
GACGTCAA	0.0734
ACTAACTG	0.163
TGTGGTAA	0.217
ACGCGAAC	-0.0469

— PMC6212790
